Laboratory results reported in article PMC4336329 (PLoS ONE, 2015).
The whole screen tested about 310,000 compounds, of which about 14,000 (4.5%) showed an effect of 50% or more. Effects have a minus sign here. The list shows a part of the results.

What follows are molecules tested against human ether-à-go-go-related gene (hERG) potassium channel (human, UniProt Q12809) (assay: primary screen, population patch clamp on CHO cells stably expressing hERG).
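Further: peak tail current of the secondary pulse compared with the same well before compound.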

Chain of human ether-à-go-go-related gene (hERG) potassium channel (Q12809 whole entry, looked up): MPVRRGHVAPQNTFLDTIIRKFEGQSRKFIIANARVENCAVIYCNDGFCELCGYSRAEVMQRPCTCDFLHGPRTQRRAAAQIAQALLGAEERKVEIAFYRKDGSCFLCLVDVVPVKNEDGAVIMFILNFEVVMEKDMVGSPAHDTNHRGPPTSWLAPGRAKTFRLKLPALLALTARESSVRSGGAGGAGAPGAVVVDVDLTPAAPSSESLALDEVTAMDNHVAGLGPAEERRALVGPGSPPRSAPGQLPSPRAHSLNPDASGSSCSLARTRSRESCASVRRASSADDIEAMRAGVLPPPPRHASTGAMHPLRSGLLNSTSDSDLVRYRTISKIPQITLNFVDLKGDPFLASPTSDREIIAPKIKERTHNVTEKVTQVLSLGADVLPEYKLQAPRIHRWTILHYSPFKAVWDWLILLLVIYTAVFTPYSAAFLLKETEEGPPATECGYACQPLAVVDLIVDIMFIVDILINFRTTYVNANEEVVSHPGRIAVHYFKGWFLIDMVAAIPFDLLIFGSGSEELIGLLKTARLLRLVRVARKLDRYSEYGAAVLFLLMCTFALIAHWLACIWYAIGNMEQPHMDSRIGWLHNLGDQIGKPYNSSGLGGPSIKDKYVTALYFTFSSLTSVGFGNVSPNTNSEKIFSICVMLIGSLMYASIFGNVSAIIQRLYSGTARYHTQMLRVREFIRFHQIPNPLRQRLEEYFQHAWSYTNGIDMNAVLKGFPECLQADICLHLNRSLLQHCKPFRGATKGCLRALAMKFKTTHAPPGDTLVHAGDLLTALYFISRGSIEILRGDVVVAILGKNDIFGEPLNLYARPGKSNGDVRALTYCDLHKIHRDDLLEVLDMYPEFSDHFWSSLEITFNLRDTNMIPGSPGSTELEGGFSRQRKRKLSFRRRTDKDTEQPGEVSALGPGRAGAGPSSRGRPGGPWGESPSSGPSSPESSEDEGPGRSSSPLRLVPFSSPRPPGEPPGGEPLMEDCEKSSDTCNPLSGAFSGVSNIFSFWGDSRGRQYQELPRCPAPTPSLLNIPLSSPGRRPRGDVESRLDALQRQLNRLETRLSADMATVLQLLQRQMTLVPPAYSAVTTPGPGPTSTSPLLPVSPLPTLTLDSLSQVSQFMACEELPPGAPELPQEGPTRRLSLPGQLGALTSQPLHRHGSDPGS

Compared with `O=c1c(-c2ccc3c(c2)OCCO3)coc2cc(OC3OC(CO)C(O)C(O)C3O)ccc12` (stereo not shown), `O=C1CC(NS(=O)(=O)c2cc(F)ccc2F)CN1c1ccc2c(c1)OCCO2` (stereo not shown) is lower in “hERG current change (%, negative = inhibition) at 10uM” value: 12.2% for the first, -4.13% for the second.

Going from `CCCn1c(C)cc(C(=O)COc2ccc(S(=O)(=O)N(CC)CC)cc2[N+](=O)[O-])c1C` to `CCCCNS(=O)(=O)c1ccc2nc(-c3cccnc3)cc(C(=O)NC3CC3)c2c1`, the “hERG current change (%, negative = inhibition) at 10uM” value falls from -5.52% to -28%.

First: CCC(Sc1nc(N)cc(=O)[nH]1)C(=O)Nc1cc(C)on1 (stereo not shown)
Second: COc1ccc(-c2cc(C(=O)Nc3cc(C)on3)no2)cc1
The “hERG current change (%, negative = inhibition) at 10uM” value of the first is lower: 13% for the first, 19.9% for the second.

First: c1ccc(Oc2cccc(OCCCCN3CCCC3)c2)cc1
Second: Cc1cccc(OCCNC(=O)CCc2ccccc2)c1
The “hERG current change (%, negative = inhibition) at 10uM” value of the first is lower: -78.3% for the first, 8.81% for the second.

First: CCOC(=O)C(C)Oc1cccc2c(=O)n(CC(=O)NCCc3ccc(OC)c(OC)c3)ccc12 (stereo not shown)
Second: COc1ccc(C(=O)NNC(=O)CCn2nnc(-c3ccc(C)cc3)n2)cc1OC
The “hERG current change (%, negative = inhibition) at 10uM” value of the first is lower: -7.08% for the first, 17% for the second.

First: CCN1CCCC1CNC(=O)c1ccccc1Cl (stereo not shown)
Second: O=C(c1cccc(Cl)c1)N1CCCc2ccccc21
The “hERG current change (%, negative = inhibition) at 10uM” value of the first is lower: -10.6% for the first, -8.07% for the second.

First: CCC(C)[C@H]1CNCCN1CCC12CC3CC(CC(C3)C1)C2 (stereo partly shown)
Second: CC(C)(CO)NC12CC3CC(CC(C3)C1)C2
The “hERG current change (%, negative = inhibition) at 10uM” value of the first is higher: 12.5% for the first, -1.97% for the second.

Compared with `COc1ccc(C(=O)N2CCC(C(=O)Nc3ccc4c(c3)OCO4)CC2)cc1`, `COc1ccc(N2CCN(CC(=O)c3ccc(Cl)cc3)CC2)cc1` is higher in “hERG current change (%, negative = inhibition) at 10uM” value: -79.9% for the first, 10.5% for the second.

Compared with `Cc1ccccc1-n1c(O)c(C=NCCN2CCOCC2)c(=O)[nH]c1=O`, `CC(=O)C1=C(O)C(=O)N(CCCN2CCOCC2)C1c1ccccc1[N+](=O)[O-]` (stereo not shown) is higher in “hERG current change (%, negative = inhibition) at 10uM” value: -6.37% for the first, 14.6% for the second.

First: CCOc1ccc(/C=C2\SC(=S)N(C)C2=O)cc1OC
Second: CCc1ccc(N=C2NC(=O)/C(=C/c3cc(OC)c(OC)c(OC)c3)S2)cc1
The “hERG current change (%, negative = inhibition) at 10uM” value of the first is lower: 6.49% for the first, 16% for the second.

First: CC1Cc2nc(SCC(=O)Nc3nccs3)n(Cc3ccccc3)c(=O)c2S1 (stereo not shown)
Second: O=C(Nc1nccs1)c1cc2sccc2n1Cc1ccc(Cl)cc1
The “hERG current change (%, negative = inhibition) at 10uM” value of the first is higher: 2.84% for the first, -2.4% for the second.

Going from `CC1(NC(=S)N(CCO)CCO)CCS(=O)(=O)C1` (stereo not shown) to `CCCC1NC(=S)NC(C)=C1C(C)=O` (stereo not shown), the “hERG current change (%, negative = inhibition) at 10uM” value rises from 3.47% to 16.7%.

First: COc1ccc(C(=O)COC(=O)C(CCCCN2C(=O)C3C4C=CC(C4)C3C2=O)N2C(=O)C3C4C=CC(C4)C3C2=O)cc1 (stereo not shown)
Second: O=C(NCN1C(=O)C2C3C=CC(C3)C2C1=O)Nc1cccnc1 (stereo not shown)
The “hERG current change (%, negative = inhibition) at 10uM” value of the first is lower: -46.3% for the first, 1.61% for the second.

Going from `COc1ccc(C[C@H]2CN3C(=NC[C@H]3C)N2CCNC(=O)c2ccc(C)c(Br)c2)cc1` to `COc1ccc(COC(=O)C2=C(C)NC(=O)NC2c2ccc(F)cc2)cc1` (stereo not shown), the “hERG current change (%, negative = inhibition) at 10uM” value rises from -72% to 1.67%.

Compared with `COc1ccc(C=Nc2ccc3[nH]ncc3c2)c(O)c1`, `CCCc1ccc(Oc2cn[nH]c2-c2ccc(O)cc2O)cc1` is lower in “hERG current change (%, negative = inhibition) at 10uM” value: 19.7% for the first, 12.5% for the second.

Compared with `COc1cccc(C2c3[nH]c4ccccc4c3C[C@H]3C(=O)N(c4ccccc4C(=O)N4CCC[C@H]4C(=O)O)C(=O)N23)c1` (stereo partly shown), `COc1ccc(N2CCN(c3ncnc4c3[nH]c3ccccc34)CC2)cc1` is higher in “hERG current change (%, negative = inhibition) at 10uM” value: 12.4% for the first, 16.5% for the second.

Compared with `CCN(CC)c1ccc2c(cc1=O)[C@@H](NC)CCc1cc(OC)c(OC)c(OC)c1-2`, `COc1cc(CC(=O)Oc2ccc3c(c2)OCO3)cc(OC)c1OC` is lower in “hERG current change (%, negative = inhibition) at 10uM” value: -1.31% for the first, -2.51% for the second.

Compared with `COc1ccc(C2c3sc(=O)[nH]c3SCC2C(N)=O)cc1` (stereo not shown), `CCCCNC(=O)c1cc2cc(OC)ccc2[nH]1` is lower in “hERG current change (%, negative = inhibition) at 10uM” value: 7.32% for the first, 0.875% for the second.

Going from `C[C@H]1CN=C(N(C)C)N1CC1CCCCC1` to `COc1cc(/C=C(\NC(C)=O)C(=O)N2CCCCC2)ccc1OC(C)=O`, the “hERG current change (%, negative = inhibition) at 10uM” value rises from 7.73% to 10.6%.

Going from `C[C@H](NC(=O)[C@@H]1Cc2ccccc2CN1C(=O)OC(C)(C)C)C(=O)NCc1ccco1` to `CC(C)C[C@H](NC(=O)c1nc[nH]c1C(=O)NCc1ccc(CNC(=O)OC(C)(C)C)cc1)C(=O)OCc1ccccc1`, the “hERG current change (%, negative = inhibition) at 10uM” value falls from 30% to 2.91%.

Compared with `Cc1ccc2c(c1)N(Cc1ccccn1)C(=O)C(C)O2` (stereo not shown), `COc1ccccc1-c1noc2ncnc(Nc3cccc(C)c3)c12` is higher in “hERG current change (%, negative = inhibition) at 10uM” value: -2.29% for the first, 15.9% for the second.

First: CCc1ccc(N/C(N)=N/c2nc(CSc3ncccn3)cc(=O)[nH]2)cc1
Second: O=C(CCc1nc2ccccc2[nH]1)Nc1ccc(F)cc1
The “hERG current change (%, negative = inhibition) at 10uM” value of the first is higher: 20.9% for the first, -11% for the second.

Compared with `Cc1nnc(NC(=O)CSc2nc3[nH]ncc3c(=O)[nH]2)s1`, `Cc1cc(C)c2c(=O)[nH]c(SCC(=O)Nc3ccccc3)nc2n1` is lower in “hERG current change (%, negative = inhibition) at 10uM” value: 14.9% for the first, 4.85% for the second.

Compared with `O=C(Nc1nnc(-c2ccccc2)o1)C1CCCN1S(=O)(=O)c1cccs1` (stereo not shown), `CC1CCN(S(=O)(=O)c2ccc(S(=O)(=O)NCc3ccccc3)cc2)CC1` is lower in “hERG current change (%, negative = inhibition) at 10uM” value: 5.16% for the first, 1.51% for the second.

First: CC(C)CCNC(=O)c1cc(C(=O)c2cc(F)ccc2O)cn(CCC(C)C)c1=O
Second: CC(C)Cc1ccc(C(=O)NCCOc2ccccc2)o1
The “hERG current change (%, negative = inhibition) at 10uM” value of the first is higher: 17.4% for the first, -22.9% for the second.

Compared with `CC(=O)N1CCc2cc(S(=O)(=O)NC(CC(C)C)C(=O)N3CCc4ccccc4C3)ccc21` (stereo not shown), `COc1ccccc1NC(=O)CS(=O)(=O)c1cn(CC(=O)N2CCOCC2)c2ccccc12` is higher in “hERG current change (%, negative = inhibition) at 10uM” value: -26.8% for the first, -3.84% for the second.

First: CCOc1cc(NC(=O)c2cccs2)c(OCC)cc1NC(=O)c1ccccn1
Second: O=C(COC(=O)c1cnccn1)NC(=O)c1ccccc1
The “hERG current change (%, negative = inhibition) at 10uM” value of the first is lower: -9.78% for the first, -7.38% for the second.

Going from `N/C(=N\OC(=O)Oc1ccccc1)c1ccc([N+](=O)[O-])cc1` to `CC(=O)Nc1ccc(C(=O)OCC(=O)NCc2ccccc2)cc1`, the “hERG current change (%, negative = inhibition) at 10uM” value falls from 18.1% to 11.9%.

Compared with `CC(=O)Nc1cccc(CP(=O)(c2ccccc2)c2ccccc2)c1`, `O=C(Nc1ccc(F)cc1)c1cccnc1Oc1ccccc1` is lower in “hERG current change (%, negative = inhibition) at 10uM” value: 14.6% for the first, -7.73% for the second.

Compared with `Cc1cc(C(=O)Nc2ccc3nc(C)sc3c2)c2ccccc2n1`, `COc1cccc(Nc2nc(-c3sc(C)nc3C)cs2)c1` is lower in “hERG current change (%, negative = inhibition) at 10uM” value: 7.1% for the first, -9.73% for the second.

Compared with `CCC(=O)Oc1oc(-c2ccccc2)nc1C=Nc1ccc(C)cc1`, `NC(=O)c1ccc(-c2noc(-c3cccc(Cl)c3)n2)cc1` is higher in “hERG current change (%, negative = inhibition) at 10uM” value: 11.4% for the first, 19.4% for the second.

First: CCC(C(=O)NC(C)(C)C)N(Cc1ccccc1Cl)C(=O)c1snc(C(N)=O)c1N (stereo not shown)
Second: O=C(CN(C(=O)c1csnn1)c1ccc(F)c(Cl)c1)NCc1ccc2c(c1)OCO2
The “hERG current change (%, negative = inhibition) at 10uM” value of the first is higher: 7.77% for the first, -19.5% for the second.

First: CN(c1cccc(Cl)c1)S(=O)(=O)c1cccc(C(=O)NN2CCOCC2)c1
Second: CCCCc1ccc(/C(C)=N/Nc2cc(N3CCOCC3)nc(C)n2)cc1
The “hERG current change (%, negative = inhibition) at 10uM” value of the first is lower: -14.1% for the first, 4.93% for the second.

Compared with `C/C(N)=C(/C#N)C(=O)COC(=O)CNS(=O)(=O)c1ccc(C)cc1`, `NC(=O)c1ccccc1NC(=S)NC(=O)c1ccc(Br)o1` is lower in “hERG current change (%, negative = inhibition) at 10uM” value: 29.7% for the first, -10.1% for the second.

First: Cc1cc2cc3c(N)[nH]nc3nc2cc1C
Second: Cc1cc(C(=O)CSc2n[nH]c(N)n2)c(C)n1C1CC1
The “hERG current change (%, negative = inhibition) at 10uM” value of the first is higher: 5% for the first, 1.52% for the second.

First: CCn1c(=O)cc(C(F)(F)F)[nH]c1=S
Second: Cc1ccc(CNC(=O)Nc2ccc(OC(F)(F)F)cc2)n1C
The “hERG current change (%, negative = inhibition) at 10uM” value of the first is higher: 30.5% for the first, 11.3% for the second.

Compared with `CN1C(=O)c2ccc(NC(=O)c3ccc(N4CCCCC4)c([N+](=O)[O-])c3)cc2C1=O`, `O=[N+]([O-])c1cc(F)c(N2CCOCC2)cc1N1CCCCC1` is higher in “hERG current change (%, negative = inhibition) at 10uM” value: -21.3% for the first, -11.4% for the second.

Going from `CSc1cccc(NC(=S)NC(=O)c2cccnc2)c1` to `COc1ccc(NC(=S)Nc2cc(C)ccn2)c(OC)c1`, the “hERG current change (%, negative = inhibition) at 10uM” value rises from 11.3% to 12.1%.

Compared with `CCCCC[n+]1ccn(-c2nc3ccccc3nc2[N-]S(=O)(=O)c2ccccc2)c1`, `CC(=O)NNC(=O)CN1C(=O)CN=C(c2ccccc2)c2cc(Br)ccc21` is higher in “hERG current change (%, negative = inhibition) at 10uM” value: -39.6% for the first, 13.1% for the second.

First: O=C(c1ccccc1)c1cc2c(cc1[N+](=O)[O-])OCCO2
Second: O=C(/C=C/c1ccccc1[N+](=O)[O-])N1CCCCC1
The “hERG current change (%, negative = inhibition) at 10uM” value of the first is lower: -8.32% for the first, -2.55% for the second.

Going from `CC(C)CNC(=O)c1coc(=O)c(Br)c1` to `CCn1c(CSc2nccn2C)nc2cc(C(=O)O)ccc21`, the “hERG current change (%, negative = inhibition) at 10uM” value falls from 23.6% to 5.81%.

Compared with `COc1ccc(N=NC2=C(O)CC(C)(C)CC2=O)c(OC)c1`, `CCOc1c(O)ccc(C2NC(=O)NC(C)=C2C(=O)OC)c1[N+](=O)[O-]` (stereo not shown) is lower in “hERG current change (%, negative = inhibition) at 10uM” value: 13.3% for the first, -6.35% for the second.

Compared with `CC[n+]1c(/C=C/C=C/c2ccc(N(C)C)cc2)sc2ccccc21.[O-][Cl+3]([O-])([O-])[O-]`, `Cc1ccc(OCC(O)CN2CCC(Cc3ccccc3)CC2)c(C)c1.Cl` (stereo not shown) is lower in “hERG current change (%, negative = inhibition) at 10uM” value: -73.4% for the first, -75.2% for the second.

First: COC(=O)C1(S(=O)(=O)C2(C(=O)OC)CCCC2)CCCC1
Second: CC(C)(C)CC(=O)Nc1cc(S(=O)(=O)N2CCOCC2)ccc1N1CCCC1
The “hERG current change (%, negative = inhibition) at 10uM” value of the first is lower: -1.71% for the first, 12.8% for the second.
